These results are taken from PubChem BioAssay AID897 (National Center for Advancing Translational Sciences (NCATS), 2007).

Some of the results follow. The main result of the screen is listed elsewhere. These columns were measured beside it and carry no call. Compounds called inactive in the main read-out are mostly missing here. The note in brackets gives the kind of curve behind each potency; many fits are weak.

Chain of UniProt P55210 (P55210 whole entry, looked up): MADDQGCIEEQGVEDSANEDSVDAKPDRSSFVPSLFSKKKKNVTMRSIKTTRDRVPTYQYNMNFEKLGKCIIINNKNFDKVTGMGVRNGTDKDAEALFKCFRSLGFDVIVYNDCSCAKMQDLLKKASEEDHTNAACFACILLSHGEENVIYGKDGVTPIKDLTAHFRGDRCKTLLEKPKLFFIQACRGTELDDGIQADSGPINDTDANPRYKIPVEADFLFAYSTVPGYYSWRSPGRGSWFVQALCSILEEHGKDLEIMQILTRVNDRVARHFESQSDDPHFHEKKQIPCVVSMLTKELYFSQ

The target of this assay is Caspase-7 (Homo sapiens) (UniProt P55210). The experiment in a line: Confirmation Concentration-Response Assay for Allosteric/Competitive Inhibitors of Caspase-7. Conditions: recombinant caspase-7, fluorogenic substrate cleavage; measured here: rate read AC50. The text has this:
NIH Molecular Libraries Screening Centers Network [MLSCN]
NIH Chemical Genomics Center [NCGC]
PI Name: Dr. James Wells,
Dr. Enrique Perez-Paya, Dr.Janice Williams, Dr. Dennis Wolan, a person
The caspases (Cysteine Aspartyl Protease) comprise a related family of 14 dimeric proteases that are critical mediators of apoptosis (programmed cell death) and inflammation. The caspases represent an important class of drug targets for stroke, ischemia, cancer and inflammatory diseases. […] One goal of this project was to identify compounds that act as allosteric inhibitors via stabilizing the procaspase form of the enzyme. Previous work in Well's laboratory has shown that such allosteric inhibitors can be identified and these act by binding at the dimer interface of enzyme (Hardy, Lam et al., 2004).
The biochemical assay was configured using purified caspase 7 at a high enzyme concentration to promote formation of the homodimers and thus facilitate the identification of allosteric inhibitors. The overall goal was to identify reversible inhibitors with better drug-like properties than the currently available set of aspartyl-containing peptidomimetics that covalently bind the active site. Caspase 7 was assayed using the profluorescent substrate Ac-DEVD-AFC. After initiation of the assay with substrate the plates were rapidly read using an automated robotic system (Kalypsys, Inc.) to maintain consistent timing. A kinetic mode of detection was used where the initial rate was collected (estimated final product formation was ~10%). Compounds were screened as a concentration-titration series that ranged from 57 uM to 0.7 nM. Below is the protocol used for caspase 7.
NCGC Assay Protocol Summary:
Caspase 7 was prepared in buffer (50 mM HEPES pH 7.5, 50 mM KCl, 200 mM NaCl, 10 mM DTT, 0.1% CHAPS) at a concentration of 66.6 nM and 3 uL was dispensed to all wells using black solid Kalypsys 1536-well plates. 20 nL of DMSO containing compounds was added using a pin-tool (Kalypsys Inc.) to columns 5-48. Then 20 nL of DMSO solution from a control plate was added to columns 1-4. […] The plates were then exposed using 405 nm excitation/520 nm emission filters for 4 sec and read at 20 sec intervals for 3 min. […]
Concentration-response curves were fitted to the data calculated from slope of the linear regression of fluorescent intensity versus time (the rate). The concentration-effect curves were then classified based on curve quality (r2), response magnitude and degree of measured activity. […] Inconclusive compounds had appreciable concentration-dependent effects on both the measured rate and the interpolated basal fluorescence intensity at the start of the reaction but where the basal fluorescent intensity was marginal (e.g. < 10-fold). […]
By AC50 is commonly meant the concentration at which the activity in the assay is half-maximal. With `Cn1ncnc2c(=O)n(C)c(=O)nc1-2`, the AC50 is 3980 nM [falling, full curve].

For `C[C@]12Cc3cn4c(nc3C=C1CC[C@H]1[C@@H]2CC[C@@]2(C)[C@H]1CC[C@@]2(O)C#N)nc1ccccc14`, the AC50 was 7940 nM [falling, full curve].

As for `CCn1nc(-c2ccccc2)nc2c(=O)n(C)c(=O)nc1-2`, the AC50 is 1580 nM [falling, full curve].

Consider `CCn1nc(-c2cccs2)nc2c(=O)n(C)c(=O)nc1-2`, for which the AC50 is 631 nM [falling, full curve].
